From the RNAGym collection of RNA variant scans (doi:10.1073/pnas.2313332121)
Variants at the floor of the assay are shown more often than the library holds them.

B1: TPR 5TU (parent)
chain: GGAUCUUCUCGAUCUAACAAAAAAGACAAAUCUGCCACAAAGCUUGAGAGCAUCUUCGGAUGCAGAGGCGGCAGCCUUCGGUGGCGCGAUAGCGCCAACGUUCUCAACUAUGACACGCAAAACGCGUGCUCCGUUGAAUGGAGUUUAUCAUG

Variants of: B1
Experiment: polymerase ribozyme fitness, log enrichment relative to wild type (log ratio); higher = more active; in vitro selection for triplet polymerase activity
Outline: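 Mutant libraries of each subunit of a heterodimeric triplet polymerase ribozyme were built by PCR and transcribed. Each library went through one round of in vitro selection in triplicate: annealing with biotinylated primer, partner subunit and triplets, frozen incubation at −7 °C, gel excision of extended constructs, streptavidin-bead capture and RT-PCR. Input and output libraries were Illumina-sequenced; only genotypes with ≥10 input reads and ≥1 read per output were kept. Fitness is log2(genotype enrichment/wild-type enrichment), using inverse-variance-weighted replicate averages.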

Row | Variant | polymerase ribozyme fitness (log ratio)
1 | GGAUCUUCUCGAGCUAACAAAAAAGACAAAUCUGCCACAAAGCUUGAGAGCAUCUUCGGAUGCAGAGGCGGCAGCCUUCGGUGGCGCGAUAGCGCCAACGUUCUCAACUAUGACACGCAAAACGCGAGCUCCGUUGAAUGGAGUUUAUCAUG [U13G U127A] | ≤ -4.2
2 | GGAUCUUCUCGAUAUACCAAAAAAGACAUAUCUGCCACAAAGCUUCAGAGCAUCUUCGGCUGCAGAGGCCGCAGCCUUCGGUGGCGCGAUAGCGCCAACGUUCUCAAUUAUGACACGCAAAACGCGUGCUCCGUUGAAUUGAGUUUAUCAUG [C14A A17C A29U G46C A60C G70C C108U G140U] | ≤ -4.2
3 | GGAUCUUCUCGAGCUAACAAAAAAGACAAACCUGCCACAAAGCUUGAGAGCAUCUUCGGAUGCAGAGGCGGCAGCCUUCGGUGGCGCGAUAGCGCCAACGUUCUCAACUAUGACAGGCUAAACGCGUGCUCCGUUGAAUGGAGUUUAGCAUG [U13G U31C C116G A119U U148G] | ≤ -4.2
4 | GGAUCUUCUCGAGCUAACAAAAAAGACAAAUCUGCCACAAAGCUUGAGAGCAUCUUCGGAUGCAGAGGCGGCAGCCUGCGGUGGCUCGAUAGCGCCAACGUUCUCAACUAUGACACGCAAAACGCGUGCUCCGUUGAAUAAAGUUUAUCAUG [U13G U78G G86U G140A G141A] | ≤ -4.2
5 | GGAUCUUCUCGAGCUAACAAAAAAGACAAACCUGCCACAGAGCUUGAGAGCAUCUUCUGAUGCAGAGGCGGCAGCCUCCGGUGGGGCGAUAGCGCCAACGUUCUCAACUAUGAUACGCAAAACGCGUGCUCCGUUGAAUGUAGUUUAUCAUG [U13G U31C A40G G58U U78C C85G C114U G141U] | ≤ -4.2
6 | GGAUCUUCUCGAUAUACCAAAAAAGGCAAAUCUGCAACAAAGCUUGAGAGCAUCUUCGGAUGCAGAGGCGGCAGCCUUCGGUGGGGCGAUAGCGCUUACGUUCUCAAUUAUGACACGCAAAACGCGUGCUCCGUUGAAUGGCGUUUAUCAUG [C14A A17C A26G C36A C85G C96U A97U C108U A142C] | ≤ -4.2
7 | GGAUCUUCUCGAGCUAACAAAAAAGACAAAUCUGCCACAAAGCAUGAGCGCAUCUUCGGAUGCAGAGGCGGCAGCCUUCGGUGGCGCCAUAGCGCCAACGUUCUCAACUAUGACACGCAAAACGCGUGCUCCGUUGAAUGGAGUUUAUCAUG [U13G U44A A49C G88C] | ≤ -4.2
8 | GGAUCUUCUCGAGCUAACAAAAAAGACAAAUCUGCCACAAAGCUUGAGAGCAACUUCGCAUGCAGAGGCGGCAGCCUUCGGUGGCGUGAUAGCGCAAACGUUCUCAACUAUGGCACGCAAAACGUGUGCUCCGUUGAAUGGAGUUUAUCAUG [U13G U53A G59C C87U C96A A113G C125U] | ≤ -4.2
9 | GGAUCUUCUCGAUAUGACAAAAAAGACAAAUCUGCCACAAAGCUUGAGAGCAUCUUCGGAUGCCGAGGCGGCAGCCUUCGGUCGCGCGAUAGCGCCAACGUUCUCAACUAUGACACGCAAAACGUGUGCUCCGUUUAAUGGAGUGUAUCAUG [C14A A16G A64C G83C C125U G136U U145G] | ≤ -4.2
10 | GGAUCUUCUCGAUAUACCAAAAAAGACAAAUCUGCCACAAAGCUUGAGAGCAUCUUCGGAUGCAGAGGCGGCAGCCUUCGGUGGCGCGAUAGUGCCAACGUUCUCAACUAUGACAGGCAAAACGCGUGCUCCGUUGAAUGGAGUUUAUCAUG [C14A A17C C93U C116G] | -2.99
11 | GGAUCUUCUCGAGCUAACAAAAAAGACAAAUCUGCCACAAAGCUUGAGAGCAUCUACGGAUGCAGAGGCGGCAGCCUUCGGUGGCGAGAUAGAGCCAACGUUCUCACCUAUGACACGCAAAACGCGUGCUCCGUUGAAUGGAGUUUAUCAAG [U13G U56A C87A C93A A107C U151A] | ≤ -4.2
12 | GGAUCUUCUCGAGCUAACAAAAAAGACAAAUCUGCCACAAAGCUUGAGAGCAUCUACGGAUGCAGAGGCGGCAGCCCUCGGUGACGCGAUAGCGCCAACGUUCUCAACUAUGACACGCAAAACGCGUGCUCCGUUGAAUGGAGAUUAUCAUG [U13G U56A U77C G84A U144A] | ≤ -4.2
13 | GGAUCUUCUCGAGCUAACAAAAAAGACAAAUCUGCCACAAAGCUUGAGAGCAUCGUGGGAUGCAGAGGCGGCAGCUUUCGGUUGCGCGAUAGCGCCAACGUUCUCUACUAUGACACGCAAAACGCGUGCUCCGUUGAAUGGAGUUUAUCAUG [U13G U55G C57G C76U G83U A106U] | ≤ -4.2
14 | GGAUCUUCUCGAUAUCACAAAAAAGACAAAUCUGCCACAAAGCUUGAGAGCAUCUGGGGAUGCAGAGGCGGCAGCCUUCGGUGGCGCGAUCGCGCCAACGUUCUCAACUAUGACACGCAAAACGCGUGCUCCGUUUAAUGGAGUUUAUCAUG [C14A A16C U56G C57G A91C G136U] | ≤ -4.2
15 | GGAUCUUCUCGAGCUAACAAAAAAGACAAAACUGCCACAAAGCUUGAGAGCAUCUUCAGAUGCAGAACCGGCAGUCUUCGGUGGCGCGAUAGCGCCAACGUUCUGAACUAUGACACGCAAAACGCGUGCUCCGUUGAAUGGAGUUUAUCAUG [U13G U31A G58A G67A G68C C75U C105G] | ≤ -4.2
16 | GGAUCUUCUCGAGCUAACAAAAAAGACAAAUCUGCCACAAAGCUUGAGAGCAACUACGGAUGCAGAGGCGGCAGCCUUCGGUGACGCGAUAGCGCCAACGUUCUCAACUAUGACACGCAAAACGCGUGCUCCGUUGAAUGGAGUUUAUCAUG [U13G U53A U56A G84A] | ≤ -4.2
17 | GGAUCUUCUCGAUAUAACAAAAAAGACAAAUCUGCCACAAAGCUUGAGAGCAUCUUCGGAUGCAGAGGCGGCAGCCUUCGGUGGCGCGAUAGCGCCAACGUUCUCAACUAUGACACGCAAAACGCGUGCUCCGUUGAAUGGAGUUUAUCAUG [C14A] | -1.08
18 | GGAUCUUCUCGAGCUAACAAAAAAGACAAACCUGCCACAAUGCUUGAGAGCAUCUUCGGAUGCAGAGGCCGCAGCCUUCGGUGGAGCGAUAGCGCCAACGUUCUUAACUAUGAAACGCAAAACGCGUGCUCCGUUGAAUGAAGUUUAACAUG [U13G U31C A41U G70C C85A C105U C114A G141A U148A] | ≤ -4.2
19 | GGAUCUUCUCGAGCUAACAAAAAAGACAAAUCUGCCACAAAGCUUGAGAGCAUCUGCGGAUGCAGAGGCGGCAGCCUUCGGUGUAGCGAUAGCGCCAAUGUUCUCAACUAUGACACGCAAAACGCGUGCUCCGUUGAAUGGAGUUUAUCAUG [U13G U56G G84U C85A C99U] | ≤ -4.2
